From the supplement of paper PMC4166925
± gives the standard deviation of the averaged measurements. The full ranking holds about 33,000 sequences; the median of “E-score (dimensionless, -0.5 to 0.5)” is about -0.046, and the highest 2% start at about 0.36. Some of the results follow.

system: T1, SpTbr T-box DNA-binding domain (GST fusion); experiment: PBM E-score of 8-mer (E-score (dimensionless, -0.5 to 0.5)); Tbr is Tbrain of the sea star Patiria miniata (Pm) or the sea urchin Strongylocentrotus purpuratus (Sp); higher = stronger binding preference; most listed sequences are background and not binding sites; conditions: the construct has about 5 more residues each side
T1 sequence: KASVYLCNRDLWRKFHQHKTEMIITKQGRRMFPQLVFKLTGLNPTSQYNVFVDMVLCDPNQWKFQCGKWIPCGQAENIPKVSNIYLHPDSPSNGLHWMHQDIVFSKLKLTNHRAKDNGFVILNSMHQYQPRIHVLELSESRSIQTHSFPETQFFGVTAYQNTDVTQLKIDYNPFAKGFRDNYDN
Method in brief: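 Primer extension turned Universal Agilent oligonucleotide arrays double-stranded. They were incubated with 200 nM protein in PBS (pH 7.5); the protein was a GST-fused Tbr T-box DNA-binding domain expressed in BL21 E. coli at 20 °C and purified on glutathione. Every ungapped 8-mer was scored from the scanned, quantified probe intensities, and the Universal PBM Analysis Suite gave each an enrichment E-score averaged over duplicate arrays.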

In order of rising “PBM E-score of 8-mer” value:
1. CCCCATCG  -0.3 ± 0.026
2. ATACGGCC  -0.275 ± 0.086
3. CTTGCTTC  -0.261 ± 0.0056
4. CTATTGGA  -0.2593 ± 0.0013
5. CCGATATA  -0.257 ± 0.07
6. GGTCCAGA  -0.249 ± 0.01
7. GAACGGTA  -0.245 ± 0.053
8. CCGTCCAG  -0.237 ± 0.073
9. GACTTTGA  -0.227 ± 0.027
10. GGATACTA  -0.211 ± 0.014
11. CCCCTAGA  -0.209 ± 0.021
12. CTAGGGAA  -0.2 ± 0.0059
13. GATCCCCC  -0.2 ± 0.052
14. CTTAGGCC  -0.193 ± 0.044
15. CTCCGGAC  -0.191 ± 0.0068
16. AGTTCATA  -0.184 ± 0.028
17. AAACGCAA  -0.178 ± 0.032
18. CCCAGTTA  -0.175 ± 0.0019
19. CTGTATTA  -0.174 ± 0.023
20. CTACGCAA  -0.167 ± 0.015
21. CTCCTCAA  -0.16 ± 0.016
22. ATGGAAAT  -0.16 ± 0.017
23. AAGCACCG  -0.158 ± 0.058
24. CGGACATA  -0.151 ± 0.013
25. AACCAGAC  -0.149 ± 0.049
26. CCCAGTGA  -0.143 ± 0.053
27. CCGTAGGC  -0.14 ± 0.044
28. GGCCAGAA  -0.14 ± 0.0097
29. GGTCTAGA  -0.139 ± 0.077
30. GCCGATCC  -0.134 ± 0.058
31. CTCTGGAA  -0.1313 ± 0.0012
32. GGGATACA  -0.129 ± 0.041
33. GCCAAATA  -0.125 ± 0.093
34. AGTCTCAT  -0.116 ± 0.024
35. GGTCTCGA  -0.115 ± 0.014
36. CCGTTCAG  -0.113 ± 0.032
37. CTCCCCAA  -0.112 ± 0.042
38. CCTTTTCG  -0.11 ± 0.041
39. CAGACGAA  -0.11 ± 0.033
40. GCTAAGCC  -0.104 ± 0.032
41. GGAACCAA  -0.103 ± 0.082
42. AAGTCGGG  -0.101 ± 0.053
43. CGACGGAA  -0.0954 ± 0.13
44. CGAGCAAA  -0.0935 ± 0.08
45. ATAGGGAT  -0.0862 ± 0.032
46. AGGTGGAC  -0.0858 ± 0.075
47. ACCGAGGC  -0.0843 ± 0.034
48. ATAATATC  -0.0819 ± 0.051
49. CCTAGCAG  -0.0816 ± 0.02
50. ACGTCTAA  -0.0805 ± 0.02
51. GAGCATCC  -0.0765 ± 0.068
52. GACAGCCC  -0.0729 ± 0.024
53. CCAGTACA  -0.0727 ± 0.0081
54. GAACGTTA  -0.0709 ± 0.057
55. CCGCGTAG  -0.0638 ± 0.098
56. TCCCGGGA  -0.0637 ± 0.047
57. ATCTAAAG  -0.0614 ± 0.066
58. GTGCTCGA  -0.0589 ± 0.054
59. GCGCATAC  -0.0516 ± 0.01
60. CATTACGG  -0.0429 ± 0.061
61. AGAAATCA  -0.0375 ± 0.0056
62. AGGGGTTC  -0.0363 ± 0.029
63. CCATCTGC  -0.0329 ± 0.0058
64. GGATAGTA  -0.025 ± 0.059
65. CCGAGATA  -0.0195 ± 0.013
66. GTTCCCAA  -0.01837 ± 5.7e-05
67. CTGATTAC  -0.0119 ± 0.097
68. ACATGCAC  -0.00719 ± 0.071
69. CACGGTAA  -0.00562 ± 0.023
70. CGCAATAC  0.00402 ± 0.05
71. GTTCCGCA  0.0111 ± 0.093
72. CGACTCCA  0.0144 ± 0.036
73. CGTTGGTA  0.018 ± 0.0055
74. AAGAGTGG  0.023 ± 0.052
75. CGCTTCGA  0.0258 ± 0.043
76. GCGCCTGA  0.0277 ± 0.025
77. GTGGTGCA  0.0312 ± 0.0088
78. ACTACTTA  0.0581 ± 0.077
79. GACGGTCA  0.0624 ± 0.056
80. CACTGGAC  0.0659 ± 0.052
81. ATCTTGAC  0.0665 ± 0.069
82. TAACGCAA  0.069 ± 0.078
83. GATGATGC  0.0737 ± 0.0083
84. AATTATTA  0.0745 ± 0.13
85. GTTGGTTA  0.075 ± 0.0027
86. AAACCGCG  0.0876 ± 0.057
87. GTCACCGA  0.0907 ± 0.0094
88. GAGATGAC  0.0916 ± 0.0063
89. GGTCGATA  0.0927 ± 0.012
90. CGCTAGCC  0.102 ± 0.1
91. ACAACAAA  0.106 ± 0.012
92. GGCAGCGA  0.123 ± 0.032
93. CACATGTA  0.126 ± 0.022
94. TATTAGCA  0.128 ± 0.018
95. ACACAGGC  0.143 ± 0.033
96. GCGCAACC  0.143 ± 0.041
97. CCTCGGCA  0.154 ± 0.051
98. GCGAGGAC  0.166 ± 0.004
99. AGTTGCCG  0.176 ± 0.0081
100. AATTGGCA  0.177 ± 0.032
101. AGTGCAAC  0.211 ± 0.029
102. ACCGCCCG  0.217 ± 0.061
103. GTGCCATA  0.222 ± 0.024
104. GTGTGGTA  0.248 ± 0.059
105. AACGCGCG  0.25 ± 0.044
106. CGTGAATC  0.284 ± 0.0052
107. GTCACAAC  0.293 ± 0.0073
108. CGCAACAC  0.306 ± 0.024
109. CCACACAC  0.353 ± 0.018
110. CTCGACAC  0.3634 ± 0.0018
